# Out of some 410,000 compounds screened, about 6,400 (1.6%) were called active. This list was built around the results that the source calls inconclusive (neither active nor inactive); the mix of calls is not that of the screen. Calls come from the whole dose curve; as a rule, active = well fitted inhibition curve with a large enough effect; inconclusive = small, poorly fitted or top-dose-only effect; inactive = no such curve, though single readings can be large or run the other way. Potencies of inconclusive entries are left out as doubtful fits.
# Target: Glucagon-like peptide 1 receptor (Homo sapiens) (UniProt P43220)
# Assay: qHTS of GLP-1 Receptor Inverse Agonists (Inhibition Mode); note: nearly all actives have a fitted effect of over 55% in size
# Conditions: HEK293 GLP-1R CRE-luciferase, luminescence, 24 h, GLP-1R form is constitutively active; series mostly up to 38.3 µM
# How it was run: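 qHTS in 1536-well format: reporter HEK293 cells expressing constitutive GLP-1R activity in DMEM + 10% Nu serum, 24 hr with compounds at 37 deg C, luminescence read after 12 min with detection reagent.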
# Potency is the fitted concentration of half-maximal effect; tags give direction and shape of the fitted curve.
# Chain of UniProt P43220 (P43220 whole entry, looked up): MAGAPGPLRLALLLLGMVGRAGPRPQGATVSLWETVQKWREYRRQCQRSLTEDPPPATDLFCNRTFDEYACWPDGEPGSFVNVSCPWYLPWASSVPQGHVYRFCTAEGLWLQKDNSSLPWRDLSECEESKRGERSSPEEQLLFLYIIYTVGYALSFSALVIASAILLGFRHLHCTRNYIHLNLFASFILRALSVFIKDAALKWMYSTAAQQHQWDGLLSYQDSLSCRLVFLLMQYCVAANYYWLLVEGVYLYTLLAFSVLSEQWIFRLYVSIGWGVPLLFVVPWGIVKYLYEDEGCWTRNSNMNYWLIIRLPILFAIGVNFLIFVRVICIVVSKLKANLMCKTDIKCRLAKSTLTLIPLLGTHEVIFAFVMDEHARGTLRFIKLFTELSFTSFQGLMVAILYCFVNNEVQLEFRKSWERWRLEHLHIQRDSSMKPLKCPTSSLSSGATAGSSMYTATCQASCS
row,Compound,Potency
1,O=C(CSc1nnc(-c2c[nH]c3ccccc23)o1)N(Cc1ccccc1)c1ccc(F)cc1,"inconclusive [inhibitor, partial curve, poor fit]"
2,Cc1ccc(N(C)S(=O)(=O)c2ccc(-c3coc(C)n3)cc2)cc1,inactive
3,CC1=C(C(=O)N(C)C)CC(CC(=O)NCCCCc2ccccc2)C(=O)N1CCC1=CCCCC1 (centres undefined),"inconclusive [inhibitor, single point]"
4,Cc1cccc(-n2ncc(Cl)c(Cl)c2=O)c1,"inconclusive [inhibitor, single point]"
5,COc1ccc(NC(=O)Nc2cc3oc4ccccc4c3cc2OC)cc1,"inconclusive [inhibitor, partial curve, poor fit]"
6,O=[N+]([O-])c1cc([N+](=O)[O-])c2c(=Nc3ccccc3)n(-c3ccccc3)n(O)c2c1,"inconclusive [inhibitor, single point]"
7,O=C(NCCCN1CCN(Cc2ccccc2)CC1)C1CCN(c2nnc(-n3cccc3)s2)CC1,"inconclusive [inhibitor, single point]"
8,COc1ccc(OC)c(-c2csc(NC(=O)CSc3ccc([N+](=O)[O-])cc3)n2)c1,"inconclusive [inhibitor, single point]"
9,S=C(Nc1cccc(Cl)c1)NC1CCCCC1,active: 8.91 µM
10,O=C(NCc1ccco1)c1ccc2ccccc2c1,inactive
11,O=C(CCl)N(O)c1ccc(C=Cc2ccccc2)cc1,"inconclusive [inhibitor, single point]"
12,[O-][n+]1ccccc1SCc1ccccc1,inactive
13,CCCCCOc1ccccc1CN1C(=O)C(=O)c2cc(C)ccc21,inactive
14,c1cncc(-c2nc(N3CCOCC3)c3c4c(sc3n2)CCC4)c1,inactive
15,CCCCN(C)CCNC(=O)c1ccc(Cn2c(=S)[nH]c3ccc(Br)cc3c2=O)cc1,"inconclusive [inhibitor, single point]"
16,COc1cccc(NC(=S)NC(Cc2ccccc2)c2ccccc2)c1 (centres undefined),"inconclusive [inhibitor, partial curve, poor fit]"
17,O=C(CSCc1ccc(Cl)cc1)Nc1ccc(S(=O)(=O)N2CCOCC2)cc1,"inconclusive [inhibitor, single point]"
18,COc1cc(Br)c(/C=C/c2ccc3cccc(O)c3n2)cc1OC,"inconclusive [inhibitor, partial curve, poor fit]"
19,CC(C)C[C@H]1CNC(=S)N1C[C@H]1CCCN1C[C@H](Cc1ccc(O)cc1)N1C[C@H](Cc2ccc(O)cc2)N(CC2CCCCCC2)C1=S,"inconclusive [inhibitor, single point]"
